Measured values from patent US20230220053A1 (published 2023).

How the values were obtained:
[1] = target: S1-Fc (SARS-CoV-2 S1 protein, Fc fusion) (SARS-CoV-2); assay: SPR (Biacore T200), S1 captured on anti-human Fc chip, scFv injected
[2] = target: S1 protein of SARS-CoV-2 (recombinant, construct not stated) (SARS-CoV-2); assay: ELISA, S1 coated, scFv titrated, anti-Flag HRP
[3] = target: T1, RBD of SARS-CoV-2 spike protein S1 (recombinant, construct not stated) (SARS-CoV-2); assay: ELISA, RBD coated, scFv titrated, anti-Flag HRP
T1 construct: also called SARS-COV-2, RBD; RBD-AF647

B1: 2020EP54-B12 scFv (scFv)
scFv: [about 100 residues omitted]VTRVGFDYWGQGTLVTVSSGGGGSGGGGSGGGGSSYELTQPPSVSVAPGKTARITCGGNNIGSKSVHWYQQKPGQAPVLVIYYDSDRPSGIPERFSGSNSGNTATLTISRVEAEDEADYYCQVWDSSSDVVFGGGTKLTVL
notes: also called 2020EP054-B12
In the case of B1, the Kd [1] is reported as 6.54 nM, the koff [1] is reported as 0.00383 s⁻¹ and the kon [1] is reported as 586000 M⁻¹ s⁻¹. The EC50 [2] was 2.68 nM and the EC50 [3] was 0.853 nM.
